{
  "source": "PubChem BioAssay AID1347428",
  "about": "(National Center for Advancing Translational Sciences (NCATS), 2020)",
  "note": "Out of some 91,000 compounds screened, about 290 (0.32%) were called active. Inconclusive results, whose numbers are uncertain, are shown with a selection of clear calls. Calls come from the whole dose curve; as a rule, active = well fitted inhibition curve with a large enough effect; inconclusive = small, poorly fitted or top-dose-only effect; inactive = no such curve, though single readings can be large or run the other way. Potencies of inconclusive entries are doubtful fits and often do not repeat. % is set by controls: 0 for no effect and ±100 for the full control effect; potency is the fitted concentration of half-maximal effect; tags give direction and shape of the fitted curve.",
  "data": [
    {"target": "Single-stranded DNA cytosine deaminase (Homo sapiens) (UniProt Q9GZX7)", "sequence (Q9GZX7 whole entry, looked up)": "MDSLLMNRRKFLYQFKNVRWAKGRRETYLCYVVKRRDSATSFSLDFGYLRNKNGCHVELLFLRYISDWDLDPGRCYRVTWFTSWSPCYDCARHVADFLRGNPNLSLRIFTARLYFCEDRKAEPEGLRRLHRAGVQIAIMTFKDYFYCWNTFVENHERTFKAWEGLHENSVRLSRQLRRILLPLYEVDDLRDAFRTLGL", "test": "Primary qHTS assay for inhibitors of Activation Induced Cytidine Deaminase (AID): AID signal; note: nearly all actives have a fitted effect of over 25% in size", "settings": "AID deamination FRET fluorescence, UDG-coupled, 4 h; activity change, negative = inhibition: at 115 µM (top of the series)", "values": [
      {"smiles": "CCc1ccccc1NC(=O)Nc1ccc2snnc2c1", "Potency": "inconclusive: 12.6 µM [inhibitor, partial curve, poor fit]"},
      {"smiles": "Cc1cccc(CC(=O)N2CC(=O)Nc3ccc(F)cc3C2c2ccccc2)c1", "note": "(stereo not drawn)", "activity change, negative = inhibition": "inactive: -10.3%"},
      {"smiles": "Cc1ccc(CNC(=O)CSc2c(C(C)C)cnc3c2c(=O)n(C)c(=O)n3C)cc1", "Potency": "inconclusive: 89.1 µM [inhibitor, single point]"},
      {"smiles": "COc1ccc(OC)c(/C=C(/C#N)C(=O)C(C)(C)C)c1", "activity change, negative = inhibition": "inactive: -12.6%"},
      {"smiles": "Cn1c(NCCN)nc2c1c(=O)n(Cc1ccccc1)c(=O)n2C", "Potency": "inconclusive: 100 µM [inhibitor, single point]"},
      {"smiles": "Cc1ccc(C)c(N2CCN(C(=O)Cn3cnc4nc5c(cc4c3=O)CCCC5)CC2)c1", "Potency": "inconclusive: 20 µM [inhibitor, full curve, poor fit]"},
      {"smiles": "COc1ccccc1NC(=O)c1cc2cc3ccc(OC)c(Cl)c3nc2s1", "Potency": "inconclusive: 35.5 µM [inhibitor, partial curve, poor fit]"},
      {"smiles": "Cc1ccc(NC(=O)Cn2nc(C(F)(F)F)c3c2CCCC3)cc1", "Potency": "inconclusive: 63.1 µM [inhibitor, partial curve, poor fit]"},
      {"smiles": "CCOc1ccc2c(c1)NC(c1ccc(OCC)c(OCC)c1)=NC(c1ccc(F)cc1)=N2", "Potency": "inconclusive: 14.1 µM [inhibitor, full curve, poor fit]"},
      {"smiles": "COc1ccccc1CN1CCC(CNC(=O)c2cnn(-c3cccc(Cl)c3)c2C2CCN(C(=O)OC(C)(C)C)CC2)CC1", "Potency": "active: 44.7 µM"},
      {"smiles": "O=C(c1cccs1)N1N=C(c2ccc(Cl)cc2)CC1c1ccc2nccnc2c1", "note": "(stereo not drawn)", "Potency": "inconclusive: 79.4 µM [inhibitor, single point]"},
      {"smiles": "Cc1ccc2occ(CC(=O)Nc3c(C)cccc3C)c2c1", "activity change, negative = inhibition": "inactive: 10.8%"},
      {"smiles": "COc1ccc(CCNC(=O)c2cnc3sc(N4CCCCCC4)nn3c2=O)cc1", "Potency": "inconclusive: 79.4 µM [inhibitor, partial curve, poor fit]"},
      {"smiles": "COc1cc(OC)c(NC(=O)CSc2nncn3c2cc2oc(C)cc23)cc1Cl", "Potency": "inconclusive: 25.1 µM [inhibitor, full curve]"},
      {"smiles": "CCC1CCCCN1CCCNC(=O)c1ccc2c(c1)N(Cc1cccc(Cl)c1)C(=O)c1ccccc1S2(=O)=O", "note": "(stereo not drawn)", "Potency": "inconclusive: 50.1 µM [inhibitor, partial curve, poor fit]"},
      {"smiles": "CC(=O)c1ccc(NC(=O)c2sc(-n3nc(C)c(Cc4ccc5c(c4)OCO5)c3C)nc2C)cc1", "Potency": "inconclusive: 50.1 µM [inhibitor, partial curve, poor fit]"},
      {"smiles": "Cc1ccc(N2C(=O)CSC23C(=O)N(CC(=O)NCCc2ccccc2)c2ccccc23)cc1", "note": "(stereo not drawn)", "Potency": "inconclusive: 31.6 µM [inhibitor, partial curve, poor fit]"},
      {"smiles": "COc1ccc(CCNC(=O)c2ccc3nc(CCc4ccccc4)oc3c2)cc1OC", "activity change, negative = inhibition": "inactive: 15.8%"},
      {"smiles": "CSc1cccc(N2CC(C(=O)Nc3cc(Cl)ccc3-n3cncn3)CC2=O)c1", "note": "(stereo not drawn)", "activity change, negative = inhibition": "inactive: -6.66%"},
      {"smiles": "CN(Cc1ccccc1)C(=O)c1ccc(CSc2nc3cccnc3n2Cc2ccccc2)cc1", "Potency": "inconclusive: 56.2 µM [inhibitor, partial curve, poor fit]"},
      {"smiles": "Cc1cc(C)n(-c2nc3c(c(=O)n(CC(C)C)c(=O)n3C)n2CCc2ccccc2)n1", "activity change, negative = inhibition": "inactive: -7.24%"},
      {"smiles": "O=C(CSc1nccn1-c1ccc(F)cc1)Nc1cccc2ccccc12", "Potency": "inconclusive: 79.4 µM [inhibitor, partial curve, poor fit]"},
      {"smiles": "COc1ccc(C(=O)Nc2cc(NC(=O)c3ccco3)ccc2OC)cc1Cl", "Potency": "inconclusive: 4.47 µM [inhibitor, full curve, poor fit]"},
      {"smiles": "COC1/C=C\\OC2(C)Oc3c(C)c(O)c4c(c3C2=O)C2(C=C(NC(=O)/C(C)=C\\C=C/C(C)C(O)C(C)C(O)C(C)C(OC(C)=O)C1C)C4=O)OCC(=O)O2", "note": "(stereo not drawn)", "activity change, negative = inhibition": "inactive: 8.16%"},
      {"smiles": "CN(C)C(=O)C(CCN1CCC(O)(c2ccc(Cl)cc2)CC1)(c1ccccc1)c1ccccc1", "Potency": "inconclusive: 56.2 µM [inhibitor, partial curve, poor fit]"},
      {"smiles": "Cc1ccc(-c2nc(Cn3c(SCc4ccc(F)cc4)nc4cccnc43)c(C)o2)cc1", "Potency": "inconclusive: 15.8 µM [inhibitor, full curve, poor fit]"},
      {"smiles": "Cc1ccc(OCc2cc(=O)n3cc(C)sc3n2)c(NC(=O)c2ccco2)c1", "Potency": "inconclusive: 89.1 µM [inhibitor, single point]"},
      {"smiles": "Cc1ccc2onc(CNC(=O)N3CCN(c4cc(Cl)ccc4C)CC3)c2c1", "Potency": "inconclusive: 20 µM [inhibitor, full curve, poor fit]"},
      {"smiles": "COc1ccccc1CNC(=O)c1ccc2c(c1)nc(C)n2-c1cccc(C)c1", "Potency": "inconclusive: 50.1 µM [inhibitor, partial curve, poor fit]"},
      {"smiles": "Cc1ccc(CCNC(=O)c2sc3nc4n(c(=O)c3c2C)CCCC4)cc1", "Potency": "inconclusive: 79.4 µM [inhibitor, partial curve]"},
      {"smiles": "O=C(NCc1cnn(-c2ccccc2)c1)C1CCN(S(=O)(=O)c2ccc(F)cc2)CC1", "activity change, negative = inhibition": "inactive: -4.94%"},
      {"smiles": "CC(C)COc1ccc(C(=O)N(Cc2cccc(F)c2)C2CCS(=O)(=O)C2)cc1", "note": "(stereo not drawn)", "Potency": "inconclusive: 70.8 µM [inhibitor, partial curve, poor fit]"},
      {"smiles": "Cc1cc(Cl)ccc1OCC(=O)N(Cc1ccco1)Cc1ccccc1F", "Potency": "inconclusive: 56.2 µM [inhibitor, partial curve, poor fit]"},
      {"smiles": "Cc1cccc(Cn2c(-c3cccc(Br)c3)nc3ccccc32)c1", "Potency": "inconclusive: 31.6 µM [inhibitor, full curve, poor fit]"},
      {"smiles": "COc1cc(/C=C2/NC(=O)NC2=O)cc(I)c1OCC(=O)O", "activity change, negative = inhibition": "inactive: 9.59%"},
      {"smiles": "C=CCn1c(SCc2nc3ccccc3o2)nc2ccccc2c1=O", "Potency": "inconclusive: 35.5 µM [inhibitor, partial curve, poor fit]"},
      {"smiles": "CN(Cc1ccccc1)C(=O)c1ccc(CSc2nc3cccnc3n2Cc2ccccc2F)cc1", "Potency": "inconclusive: 50.1 µM [inhibitor, partial curve, poor fit]"},
      {"smiles": "Cc1ccc(-n2ncc3c(Nc4cccc(Cl)c4)ncnc32)c(C)c1", "Potency": "inconclusive: 50.1 µM [inhibitor, partial curve, poor fit]"}
    ]}
  ]
}
